As a reminder, the IC50 is the concentration needed to halve the response being measured.

IC50 is the fitted dose that halves viability relative to control wells, and lower means more sensitive; fits outside the tested doses are given as limits. AUC is the area under the same curve over the 256-fold range up to the top dose, as a fraction; it is 1 without any effect and falls as sensitivity rises. Any top dose called inferred was derived from the fitted curves, not read from the paper. Where only a bound is given, the exact number is not on record here.

Compound in the experiment: O=C1NC(=O)/C(=C\c2ccc3nccnc3c2)S1 [AS605240]
The experiment is described as follows: Viability of human cancer cell lines after 72 h of drug (GDSC screen). Particulars: top dose inferred. Here is the method: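 Human cancer cell lines in 384-well plates, medium with 10% serum, drug for 72 h over a 256-fold dose range (nine 2-fold or five 4-fold steps up to the top dose). Adherent lines were fixed and stained with the nucleic acid dye Syto60, suspension lines read with resazurin; signal relative to control wells, capped at 0 and 100%. One two-parameter sigmoid per drug and line, fitted in a mixed model over all curves with the slope shared within a line.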
With JHH-6 (liver, adherent, top dose 20 µM), the AUC is 0.985 and the IC50 was more than 20 µM.

As for JHH-7 (liver, adherent, top dose 20 µM), the AUC was 0.987 and the IC50 was more than 20 µM.

For “JHOS-2 (ovary, adherent, top dose 20 µM)”, the AUC was 0.889 and the IC50 is more than 20 µM.

For “JHOS-3 (ovary, adherent, top dose 20 µM)”, the AUC stood at 0.947 and the IC50 is more than 20 µM.

Turning to “JHU-011 (head and neck, adherent, top dose 20 µM)”, the AUC turned out to be 0.756 and the IC50 is 6.74 µM.

Regarding “JHU-022 (head and neck, adherent, top dose 20 µM)”, the AUC worked out at 0.895 and the IC50 is more than 20 µM.

For “JIMT-1 (breast, adherent, top dose 20 µM)”, the AUC amounted to 0.847 and the IC50 was determined as 16.6 µM.

For “JJN-3 (haematopoietic neoplasm, suspension, top dose 20 µM)”, the AUC was 0.847 and the IC50 is 10.9 µM.

Turning to “JM1 (B-cell lymphoma, suspension, top dose 20 µM)”, the AUC was found to be 0.892 and the IC50 was found to be 17.7 µM.

On to “JSC-1 (B-cell lymphoma, suspension, top dose 20 µM)”, for which the AUC is 0.481 and the IC50 amounted to 1.11 µM.

As to “JURL-MK1 (chronic myeloid leukaemia, suspension, top dose 20 µM)”, the AUC is 0.415 and the IC50 turned out to be 0.732 µM.

“JVM-2 (lymphoid neoplasm, suspension, top dose 20 µM)”: the AUC is 0.949 and the IC50 was more than 20 µM.

Regarding “JVM-3 (lymphoid neoplasm, suspension, top dose 20 µM)”, the AUC came to 0.857 and the IC50 was determined as 16.6 µM.

For “JiyoyeP-2003 (Burkitt lymphoma, suspension, top dose 20 µM)”, the AUC is 0.869 and the IC50 came to 14.8 µM.

On to K2 (melanoma, adherent, top dose 20 µM), for which the AUC stood at 0.507 and the IC50 was found to be 1.31 µM.

In the case of K5 (thyroid, adherent, top dose 20 µM), the AUC amounted to 0.811 and the IC50 is 10.1 µM.

“KALS-1 (glioma, adherent, top dose 20 µM)”: the AUC was 0.807 and the IC50 was found to be 15.1 µM.

Regarding “KARPAS-45 (lymphoblastic leukaemia, suspension, top dose 20 µM)”, the AUC turned out to be 0.621 and the IC50 turned out to be 2.53 µM.

For “KARPAS-299 (anaplastic large cell lymphoma, suspension, top dose 20 µM)”, the AUC turned out to be 0.906 and the IC50 came out at 19.1 µM.

In the case of “KARPAS-422 (B-cell lymphoma, suspension, top dose 20 µM)”, the AUC is 0.861 and the IC50 is 16.5 µM.

Take “KARPAS-620 (haematopoietic neoplasm, suspension, top dose 20 µM)”: the AUC amounted to 0.884 and the IC50 came out at 16.3 µM.

With “KASUMI-1 (acute myeloid leukaemia, suspension, top dose 20 µM)”, the AUC was 0.407 and the IC50 was 0.696 µM.

For the cell line “KCL-22 (chronic myeloid leukaemia, suspension, top dose 20 µM)”, the AUC stood at 0.811 and the IC50 turned out to be 8.59 µM.

For “KE-37 (lymphoblastic leukaemia, suspension, top dose 20 µM)”, the AUC came out at 0.4 and the IC50 came out at 0.71 µM.

For the cell line “KELLY (neuroblastoma, adherent, top dose 20 µM)”, the AUC is 0.925 and the IC50 is more than 20 µM.

For the cell line “KG-1 (acute myeloid leukaemia, suspension, top dose 20 µM)”, the AUC was 0.755 and the IC50 is 6.12 µM.

With KGN (ovary, adherent, top dose 20 µM), the AUC came out at 0.797 and the IC50 amounted to 11.8 µM.

As to “KINGS-1 (glioma, adherent, top dose 20 µM)”, the AUC was found to be 0.86 and the IC50 is more than 20 µM.

Regarding “KLE (endometrium, adherent, top dose 20 µM)”, the AUC amounted to 0.954 and the IC50 is more than 20 µM.

As for “KM12 (large intestine, adherent, top dose 20 µM)”, the AUC was found to be 0.986 and the concentration for half-maximal inhibition (IC50) was more than 20 µM.

With “KM-H2 (Hodgkin lymphoma, suspension, top dose 20 µM)”, the AUC was found to be 0.906 and the IC50 was 20 µM.

With “KMH-2 (thyroid, adherent, top dose 20 µM)”, the AUC is 0.938 and the IC50 is more than 20 µM.

For “KMOE-2 (acute myeloid leukaemia, suspension, top dose 20 µM)”, the AUC worked out at 0.141 and the IC50 came to 0.114 µM.

On to “KMRC-1 (kidney, adherent, top dose 20 µM)”, for which the AUC worked out at 0.951 and the IC50 is more than 20 µM.

As to “KMRC-20 (kidney, adherent, top dose 20 µM)”, the AUC is 0.968 and the IC50 was more than 20 µM.

In the case of “KMS-11 (myeloma, suspension, top dose 20 µM)”, the AUC came out at 0.962 and the half-maximal inhibitory concentration (IC50) was more than 20 µM.

In the case of “KMS-12-BM (myeloma, suspension, top dose 20 µM)”, the AUC stood at 0.91 and the IC50 came to 19.7 µM.

As for “KNS-42 (glioma, adherent, top dose 20 µM)”, the AUC came to 0.879 and the IC50 is more than 20 µM.

For the cell line “KNS-81-FD (glioma, adherent, top dose 20 µM)”, the AUC came out at 0.908 and the IC50 is more than 20 µM.

As to “KON (head and neck, adherent, top dose 20 µM)”, the AUC worked out at 0.981 and the IC50 is more than 20 µM.

On to “KOPN-8 (B-cell leukaemia, suspension, top dose 20 µM)”, for which the AUC was found to be 0.815 and the IC50 is 9.04 µM.

For the cell line “KP-1N (pancreas, adherent, top dose 10.24 µM)”, the AUC was determined as 0.833 and the IC50 worked out at 7.05 µM.

Regarding “KP-2 (pancreas, adherent, top dose 20 µM)”, the AUC was determined as 0.707 and the IC50 turned out to be 5.06 µM.

Regarding “KP-3 (pancreas, adherent, top dose 20 µM)”, the AUC is 0.783 and the IC50 was determined as 10.1 µM.

As to “KP-4 (pancreas, adherent, top dose 20 µM)”, the AUC amounted to 0.659 and the IC50 came out at 3.38 µM.

Regarding “KP-N-YN (neuroblastoma, adherent, top dose 20 µM)”, the AUC turned out to be 0.959 and the IC50 was more than 20 µM.

“KP-N-YS (neuroblastoma, adherent, top dose 20 µM)”: the AUC was 0.941 and the IC50 is more than 20 µM.

Take KS-1 (glioma, adherent, top dose 20 µM): the AUC turned out to be 0.826 and the IC50 was 16.4 µM.

Take “KU812 (chronic myeloid leukaemia, suspension, top dose 20 µM)”: the AUC is 0.876 and the 50% inhibitory concentration (IC50) amounted to 16.9 µM.

Take “KU-19-19 (bladder, adherent, top dose 20 µM)”: the AUC was found to be 0.516 and the IC50 came to 1.38 µM.

For “KURAMOCHI (ovary, adherent, top dose 20 µM)”, the AUC amounted to 0.665 and the IC50 came to 3.88 µM.

Take “KY821 (leukaemia, suspension, top dose 20 µM)”: the AUC stood at 0.969 and the IC50 was more than 20 µM.

In the case of “KYAE-1 (oesophagus, suspension, top dose 20 µM)”, the AUC amounted to 0.775 and the IC50 came to 8.8 µM.

For the cell line “KYM-1 (rhabdomyosarcoma, adherent, top dose 20 µM)”, the AUC was found to be 0.991 and the IC50 was more than 20 µM.

On to “KYSE-50 (oesophagus, adherent, top dose 20 µM)”, for which the AUC came to 0.9 and the IC50 is more than 20 µM.

Turning to “KYSE-70 (oesophagus, adherent, top dose 20 µM)”, the AUC was determined as 0.971 and the IC50 was more than 20 µM.

Turning to “KYSE-140 (oesophagus, adherent, top dose 20 µM)”, the AUC is 0.94 and the IC50 is more than 20 µM.

With “KYSE-150 (oesophagus, adherent, top dose 20 µM)”, the AUC is 0.977 and the IC50 is more than 20 µM.

On to “KYSE-180 (oesophagus, adherent, top dose 20 µM)”, for which the AUC came out at 0.907 and the IC50 is more than 20 µM.

“KYSE-220 (oesophagus, adherent, top dose 20 µM)”: the AUC was 0.752 and the IC50 amounted to 6.98 µM.

Consider “KYSE-270 (oesophagus, adherent, top dose 20 µM)”, for which the AUC is 0.964 and the IC50 was more than 20 µM.

Take “KYSE-410 (oesophagus, adherent, top dose 20 µM)”: the AUC was 0.93 and the IC50 was more than 20 µM.

With “KYSE-450 (oesophagus, adherent, top dose 20 µM)”, the AUC amounted to 0.559 and the IC50 was found to be 1.79 µM.

With “KYSE-510 (oesophagus, adherent, top dose 20 µM)”, the AUC was 0.985 and the IC50 is more than 20 µM.

“KYSE-520 (oesophagus, adherent, top dose 20 µM)”: the AUC turned out to be 0.891 and the IC50 was more than 20 µM.

For “L-363 (myeloma, suspension, top dose 20 µM)”, the AUC was 0.891 and the IC50 is 17.7 µM.

With “L-428 (Hodgkin lymphoma, suspension, top dose 20 µM)”, the AUC was 0.901 and the IC50 is more than 20 µM.

The record behind these values is the supplement of paper PMC4967469.
